# Article PMC4336329 (PLoS ONE, 2015)
# Out of some 310,000 compounds screened, about 14,000 (4.5%) showed an effect of 50% or more. Effects have a minus sign here. The list shows a part of the results.
# Target: human ether-à-go-go-related gene (hERG) potassium channel (human, UniProt Q12809)
# Assay: primary screen, population patch clamp on CHO cells stably expressing hERG
# 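Also: peak tail current of the secondary pulse compared with the same well before compound.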
# Sequence of human ether-à-go-go-related gene (hERG) potassium channel (Q12809 whole entry, looked up): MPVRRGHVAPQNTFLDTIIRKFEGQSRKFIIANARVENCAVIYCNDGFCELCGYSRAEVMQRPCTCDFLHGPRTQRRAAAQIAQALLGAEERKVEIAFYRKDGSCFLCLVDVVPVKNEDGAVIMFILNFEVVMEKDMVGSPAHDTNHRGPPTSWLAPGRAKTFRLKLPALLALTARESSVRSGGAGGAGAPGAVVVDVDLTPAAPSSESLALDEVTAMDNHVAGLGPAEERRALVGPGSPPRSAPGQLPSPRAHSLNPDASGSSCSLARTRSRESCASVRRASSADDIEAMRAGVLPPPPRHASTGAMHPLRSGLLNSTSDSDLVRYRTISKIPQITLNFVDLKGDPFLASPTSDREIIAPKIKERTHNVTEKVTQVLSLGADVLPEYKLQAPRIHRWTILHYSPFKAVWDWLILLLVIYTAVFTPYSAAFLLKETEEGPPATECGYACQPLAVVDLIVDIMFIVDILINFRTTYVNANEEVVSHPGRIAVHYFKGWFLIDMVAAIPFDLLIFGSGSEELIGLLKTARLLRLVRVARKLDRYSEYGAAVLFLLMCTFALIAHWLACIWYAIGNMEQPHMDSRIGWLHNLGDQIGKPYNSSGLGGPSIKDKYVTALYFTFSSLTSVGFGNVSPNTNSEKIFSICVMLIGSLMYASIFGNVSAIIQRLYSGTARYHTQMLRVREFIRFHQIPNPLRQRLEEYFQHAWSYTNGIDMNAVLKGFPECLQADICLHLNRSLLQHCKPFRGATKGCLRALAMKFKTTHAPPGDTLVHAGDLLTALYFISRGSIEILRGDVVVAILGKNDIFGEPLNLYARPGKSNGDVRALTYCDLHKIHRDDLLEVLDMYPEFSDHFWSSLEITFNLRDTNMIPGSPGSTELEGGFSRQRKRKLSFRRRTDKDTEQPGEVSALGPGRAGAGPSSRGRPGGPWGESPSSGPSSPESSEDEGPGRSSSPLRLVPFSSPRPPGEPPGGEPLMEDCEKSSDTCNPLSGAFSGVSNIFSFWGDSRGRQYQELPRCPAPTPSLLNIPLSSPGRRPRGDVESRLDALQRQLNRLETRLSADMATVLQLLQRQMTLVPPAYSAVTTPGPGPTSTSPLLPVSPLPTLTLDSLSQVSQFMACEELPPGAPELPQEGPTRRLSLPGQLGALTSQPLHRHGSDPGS
row,Structure (SMILES),"hERG current change (%, negative = inhibition) at 10uM [%]"
1,CCOc1ccc(-c2nc3ccccc3c(=O)o2)cc1,14.4
2,C[C@@]12CCC3[C@@](CC[C@@H]4[C@](C)(C(=O)O)CCC[C@@]34C)(C[C@H]1O)C2 (some centres unmarked),11
3,COc1cccc(NC(=O)C2COc3ccccc3O2)c1 (centres unmarked),5.51
4,COc1ccccc1N1C(=O)c2cccc3cccc(c23)C1=O,11.9
5,CN(C)C1(c2nnnn2-c2ccc(Cl)cc2)CCCCC1,-6.33
6,O=C(NNC(=S)Nc1ccccc1C(F)(F)F)C1CC1,10.2
7,CNC(=S)Nc1ccc(-c2nc3ccc(C)cc3s2)cc1,14.1
8,Cc1occc1C(=O)N1CCCC(N2CCN(c3cccc(Cl)c3)CC2)C1 (centres unmarked),-29.7
9,COc1ccc(CCNC(=O)CSc2ccc(-c3ccncc3)nn2)cc1,-14.7
10,CO/N=C/NC(=O)c1c(OC)ccnc1Oc1ccc(Cl)cc1,-8.03
11,COc1ccccc1CC(=O)Nc1ccc(O)cc1C(=O)O,0.828
12,CN(CC(=O)Nc1cccc(F)c1)CC(=O)Nc1cc(S(=O)(=O)N2CCOCC2)ccc1Cl,-45.8
13,CC(=O)Nc1c2c(nn1-c1ccccc1)CS(=O)C2 (centres unmarked),22.3
14,Cc1ccccc1CN(C)CCS(=O)(=O)c1cc(Cl)ccc1Cl,15.9
15,CC(C)(C)Cn1c(=O)[nH]c(=O)c2cc([N+](=O)[O-])cnc21,1.73
16,O=C(CN1C(=O)NC2(CCCC2)C1=O)NCCN1C(=O)S/C(=C\c2ccccc2F)C1=O,-1.75
17,CCc1ccccc1NC(=S)N(CCCN1CCOCC1)Cc1cccs1,-53.5
18,CCCCNc1cc(NC(C)=O)cc2cc(OC)c(OC)cc12,-5.09
19,NS(=O)(=O)c1cc(C(=O)O)c(NCc2ccco2)cc1Cl,14.7
20,COc1ccc(-c2noc(C3CCCN(C(=O)c4ccccc4)C3)n2)cc1 (centres unmarked),-45.1
21,CCCCNC(=O)c1cn(CC)c2cc(N3CCN(C(=O)c4ccco4)CC3)c(F)cc2c1=O,-33.8
22,CCOC(=O)c1c(NC(=O)c2c(Br)cnn2C)c(C#N)nn1-c1ccccc1,-12.2

row,Structure (SMILES),"hERG current change (%, negative = inhibition) at 10uM [%]"
1,COc1ccc(Cl)cc1Nc1nc(N)nc(C(F)(F)F)n1,-16.2
2,Oc1c(C=C2N=c3ccccc3=N2)sc(=S)n1C1CCCCC1 [17505580],-2.3
3,COc1ccccc1OC(C)C(=O)N1CCc2ccccc21 (centres unmarked),1.29
4,COc1ccc(N2CCN(C(=O)CCC(=O)N3CCOc4ccc(C)cc43)CC2)cc1,-42.7
5,COc1c(C)cc(C(=O)C2CCCN(C(=O)/C=C/c3ccccn3)C2)cc1C (centres unmarked),-15.8
6,Cn1c(=O)n(CC(N)=O)c(=O)c2c1nc(Br)n2Cc1ccccc1,22.3
7,Fc1ccccc1CN(CCN1CCOCC1)C(=S)Nc1ccccc1Cl,-6.77
8,O=C(c1ccc(Cl)s1)N1CCCC(N2CCN(c3ccc(F)cc3)CC2)C1 (centres unmarked),-70.1
9,O=C(N/N=C/c1c(O)n(C2CCCCC2)c(=S)[nH]c1=O)c1ccccc1,6.44
10,COc1ccc(C(=O)NNC(=O)CCCCC(=O)NNC(=O)c2ccc(OC)cc2)cc1,-0.256
11,Cc1ccc(C(=O)C2CCN(CC(=O)NC3CCCC3)CC2)cc1,-19
12,Cc1ccnc(NC(=O)COC(=O)c2ccc(F)cc2F)n1,6.04
13,Cl.Oc1cccc(C(O)CNCc2ccc(-c3ccccc3)cc2)c1 (centres unmarked),-66
14,O=C1c2ccccc2C2(c3ccc(F)cc3)NCCN12 (centres unmarked),10.8
15,CN(c1ccc(C(=O)NCc2cccnc2)cc1)S(C)(=O)=O,-5.37
16,COc1ccc2[nH]c3c(c2c1)CCN1C(=O)N([C@@H](C)C(=O)NCCc2ccc(OC)c(OC)c2)C(=O)[C@]31C,-6.62
17,COc1ccc(CNC(=O)C2CCCN2S(=O)(=O)c2ccc(C)cc2)cc1 (centres unmarked),-13.1
18,O=C(COC(=O)c1ccc2ccccc2c1O)NCc1ccccc1,12.9
19,Cc1ccc2nc(NC(=O)CCCC(=O)O)sc2c1,31.8
20,Cc1cccnc1NC(=O)CSc1ncnc2sc(C)c(C)c12,-17.5
21,Cc1ccc(NCc2nnc(SCC(=O)Nc3cccc(O)c3)n2CC2CCCO2)c(C)c1 (centres unmarked),-68.2
22,Cc1ccc(OCC(=O)NNC(=O)CSc2nnc(-c3ccc(C)cc3)n2C)cc1,16.6

row,Structure (SMILES),"hERG current change (%, negative = inhibition) at 10uM [%]"
1,COc1cc(/C=C/C(=O)OCC(=O)NCCN2C(=O)CSC2=O)ccc1OC(F)F,-30.5
2,Cc1ccc(S(=O)(=O)n2nc(-n3c(C)ccc3C)c3c(F)cccc32)c2ccccc12,12.3
3,COc1ccc(NC(=O)c2cncc(Br)c2)cc1S(N)(=O)=O,0.881
4,O=C(NCCCN1CCOCC1)c1ccccc1NS(=O)(=O)c1ccc(Br)cc1,-56.1
5,COc1ccc(OC)c(S(=O)(=O)NC2CC(=O)N(c3ccc(C)c(C)c3)C2)c1 (centres unmarked),-13.1
6,CCCCn1c(C)nc2c(=O)n(C)c(=O)[nH]c21,15.5
7,CCCCn1c(N)c(N(CC(C)C)C(=O)C2CCC2)c(=O)[nH]c1=O,-0.941
8,CN1CCN(Cc2nc3c(c(=O)n(C)c(=O)n3C)n2CCCc2ccccc2)CC1,-13.4
9,Cc1nn(-c2ccccc2)c(C)c1NC(=O)COC(=O)c1ccc(Cl)c(N)c1,-35.1
10,Cc1ccc(NC(=O)CN(c2ccc(C)cc2)S(=O)(=O)c2cccc3nonc23)cc1,-5.79
11,COc1cc2c(cc1O)CCN(C(=O)c1ccco1)C2C (centres unmarked),-7.83
12,O=C1C2C(c3ccccc3)(C(=O)N1c1ccc(Cl)cc1)C2(c1ccccc1)c1ccccc1 (centres unmarked),-0.401
13,Cc1ccccc1NS(=O)(=O)c1cc(C(=O)NCc2ccncc2)ccc1Cl,-26.1
14,CCc1cccc(NC(=O)Cn2c(=O)c3cccn3c3ccccc32)c1,13.3
15,Cc1ccc(CN2CCN(Cc3cnn(-c4ccc(Cl)cc4)c3)CC2CCO)o1 (centres unmarked),-69.8
16,CCOC(=O)NC(=O)C(=CNc1cccc(C)c1)C(=O)NC(=O)OCC,7.13
17,O=C(O)c1ccccc1NC(=O)C1C2C=CC(C2)C1C(=O)O (centres unmarked),3.5
18,CCCCn1c(=N)n(CC(O)c2ccccc2)c2ccccc21.Cl (centres unmarked),-64.9
19,Cc1cccc(C(=O)O/N=C(\N)Cc2cccc3ccccc23)c1,-3.19
20,COc1ccccc1N1CCN(S(C)(=O)=O)CC1,2.03
21,COc1ccc(NC(=O)CCc2nnc3ccc(N4CCN(c5cccc(OC)c5)CC4)nn23)cc1,-22.8
22,COc1ccc(C2=NCC(CSc3nnnn3C)S2)cc1 (centres unmarked),-2.23

row,Structure (SMILES),"hERG current change (%, negative = inhibition) at 10uM [%]"
1,O=C(c1ccc2c(c1)OCO2)C1CCCN(Cc2ccc(OC(F)F)cc2)C1 (centres unmarked),-85.7
2,Cc1ccccc1CNC(=O)C(=O)NCC1CCCN1S(=O)(=O)c1ccccc1 (centres unmarked),-32.2
3,Cc1cc(C(F)(F)F)n2[nH]c(=O)c(N=Nc3ccccc3)c2n1,18.6
4,C[C@@H]1CC[C@]2(C(=O)O)CC[C@]3(C)C(=CCC4[C@]56CC[C@@](O)(OC5)C(C)(C)C6CC[C@]43C)C2[C@H]1C (some centres unmarked),-0.834
5,CCOc1ccccc1Nc1nc(N)nc(CN(C)C2CCCCC2)n1,-76.1
6,Oc1ccc(/C=N/Nc2ccccc2)cc1,0.596
7,COc1ccc(CNC(=O)CSc2n[nH]c(N)n2)cc1,20.1
8,COc1ccc(CCNC(=O)COC(=O)C2COc3ccccc3O2)cc1 (centres unmarked),-0.23
9,CCOC(=O)c1c(C)[nH]c(C(=O)Nc2cc(OCC)c(N3CCOCC3)cc2OCC)c1C,9.42
10,CC1CCN(C2=NC(=O)/C(=C/c3cccc(O)c3)S2)CC1,-18.5
11,CCOC(=O)NC(=O)COC(=O)CCCSc1nc2ccccc2s1,-12.9
12,CN(CC(=O)Nc1ccc(Cl)cc1)C(=O)CCc1c[nH]c2ccccc12,-43
13,CCN1C(=O)[C@H]2[C@@H](c3ccc(-c4ccc(OC)cc4)cc3)N[C@@](C)(C(=O)OC)[C@H]2C1=O.O=C(O)C(F)(F)F,7.02
14,Cc1cc(C)c(OCC(=O)OCC(=O)NCCC2=CCCCC2)c(C)c1,12.2
15,CN(C)CCCNC(=O)c1cc(S(=O)(=O)N2CCOCC2)ccc1F,-5.17
16,CCN1CCN(C2=C(NS(=O)(=O)c3ccc(C)cc3)C(=O)c3ccccc3C2=O)CC1,-57.1
17,CNC(=O)NC(=O)CSc1nnc(-c2ccc(F)cc2)n1CC1CCCO1 (centres unmarked),6.46
18,c1ccc(CNc2nc(-c3cccnc3)nc3ccccc23)cc1,-23.4
19,Cc1cc(OCC(=O)OCC(=O)c2c(N)n(C)c(=O)n(C)c2=O)ccc1Cl,5.74
20,COc1ccc(/C=N/NC(=O)c2cc(OC)c(OC)c(OC)c2)cc1CN1CCc2cc(OC)c(OC)cc2C1C (centres unmarked),-73.4
